# Data taken from article PMC4336329 (PLoS ONE, 2015).
# Out of some 310,000 compounds screened, about 2,200 (0.71%) showed an effect of 50% or more. The effect is printed as a negative number. The list shows a part of the results.
# Target: human ether-à-go-go-related gene (hERG) potassium channel (human, UniProt Q12809)
# Assay: primary screen, population patch clamp on CHO cells stably expressing hERG
# human ether-à-go-go-related gene (hERG) potassium channel, sequence (Q12809 whole entry, looked up): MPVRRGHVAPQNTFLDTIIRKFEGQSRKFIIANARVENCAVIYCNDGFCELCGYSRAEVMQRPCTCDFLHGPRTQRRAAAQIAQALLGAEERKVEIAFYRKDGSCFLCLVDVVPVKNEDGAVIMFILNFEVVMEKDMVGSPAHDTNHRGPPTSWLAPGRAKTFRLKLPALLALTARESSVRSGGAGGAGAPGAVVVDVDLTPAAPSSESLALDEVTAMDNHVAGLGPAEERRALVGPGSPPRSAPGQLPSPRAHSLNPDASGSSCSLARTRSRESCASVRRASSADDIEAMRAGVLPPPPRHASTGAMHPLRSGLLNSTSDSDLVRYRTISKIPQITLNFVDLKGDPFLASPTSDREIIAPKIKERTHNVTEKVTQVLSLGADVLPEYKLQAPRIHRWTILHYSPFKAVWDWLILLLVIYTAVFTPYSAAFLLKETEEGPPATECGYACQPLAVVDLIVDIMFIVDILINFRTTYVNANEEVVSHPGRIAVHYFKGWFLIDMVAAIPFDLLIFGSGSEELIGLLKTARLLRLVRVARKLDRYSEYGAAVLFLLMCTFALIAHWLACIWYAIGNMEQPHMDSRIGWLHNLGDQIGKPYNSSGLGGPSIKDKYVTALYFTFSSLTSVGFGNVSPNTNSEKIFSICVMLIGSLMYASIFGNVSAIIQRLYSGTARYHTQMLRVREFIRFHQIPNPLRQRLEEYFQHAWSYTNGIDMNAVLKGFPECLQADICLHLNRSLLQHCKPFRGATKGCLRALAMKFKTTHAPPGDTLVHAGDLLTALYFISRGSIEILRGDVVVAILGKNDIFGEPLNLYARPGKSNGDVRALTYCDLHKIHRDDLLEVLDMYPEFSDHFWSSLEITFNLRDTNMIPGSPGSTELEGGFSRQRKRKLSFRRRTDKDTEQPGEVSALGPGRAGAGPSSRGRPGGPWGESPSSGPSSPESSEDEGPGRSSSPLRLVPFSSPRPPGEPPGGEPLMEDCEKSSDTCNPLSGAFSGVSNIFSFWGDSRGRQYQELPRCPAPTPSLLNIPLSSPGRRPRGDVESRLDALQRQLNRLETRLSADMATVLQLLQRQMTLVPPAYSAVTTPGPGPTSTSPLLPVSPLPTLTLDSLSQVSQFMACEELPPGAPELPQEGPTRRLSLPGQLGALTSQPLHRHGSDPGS
row,SMILES,"hERG current change (%, negative = inhibition) at 1uM [%]"
1,COc1ccc(CCNC(=O)C(=O)NCC2OCCN2S(=O)(=O)c2ccc(OC)c(OC)c2)cc1 (stereo not shown),1.72
2,Cc1cc(C(=O)Nc2ccccc2C(=O)O)c(C)o1,13.1
3,COc1ccc(Cc2c[nH]c(=O)[nH]c2=O)cc1,2.09
4,COc1ccc(NC(=O)CSc2nccn2Cc2ccc(F)cc2)c(OC)c1,1.72
5,COc1ccc(Br)cc1CN1CCN(c2ncccn2)CC1,10.9
6,NC(=O)CSc1nnc(-c2cccc(S(=O)(=O)N3CCCCC3)c2)o1,18.5
7,O=C(Nc1cccc2ncccc12)c1cc(Br)ccc1Cl,8.11
8,CCOP(=O)(CN(CC)C(=O)c1ccccc1Br)OCC,5.06
9,CC(=O)CSc1ncnc2sc3c(c12)CCCC3,6.87
10,NS(=O)(=O)c1ccc(CNC(=O)C2(c3ccc(Cl)cc3)CC2)cc1,15.5
11,CCOC(=O)c1sc(NC(=O)c2c(CC)noc2C)nc1C,-2.2
12,Cc1ccc(NC(=O)COc2ccc3c(c2)OCO3)c(C)c1,2.48
13,CN(NC(=O)c1ccccc1F)c1nc(C(F)(F)F)nc2ccccc12,14.3
14,CN1C[N+]([O-])=C(c2ccccc2)C1(C)C,13.2
15,COc1ccc(OC)c(S(=O)(=O)N2CCC(C(=O)N3CCCC3)CC2)c1,6.81
16,O=C(O)CSc1nnc2n(-c3ccccc3)c(=O)c3ccccc3n12,17.2
17,COC(=O)C[C@H]1c2cc(F)ccc2S(=O)(=O)N1c1ccc(N(C)C)cc1,14.2
18,c1ccc(Cc2noc(CN3CCCN(C4Cc5ccccc5C4)CC3)n2)cc1,-66
19,O=C(Cc1nnc(NC(=O)Nc2ccc(F)cc2)s1)Nc1ccccc1,12.9
20,O=C(OCC(F)(F)F)c1cccc(COc2ccc3ccccc3c2)c1,7.36

row,SMILES,"hERG current change (%, negative = inhibition) at 1uM [%]"
1,CCc1c(C)nc2cc(-c3ccc(OC)c(OC)c3)nn2c1N1CCCC1,11.6
2,O=c1[nH]c(/C=C/c2cccnc2)c([N+](=O)[O-])c(=O)[nH]1,13.8
3,CC(NS(=O)(=O)c1ccccc1)C(=O)NC1CCCC1 (stereo not shown),2.97
4,Cc1nn(C(=O)c2cccc([N+](=O)[O-])c2)c(C)c1Br,9.17
5,COc1ccccc1C(CCN(Cc1cccs1)C(C)=O)c1ccco1 (stereo not shown),11.5
6,COc1ccc(CNCC(O)COc2ccc(C)cc2[N+](=O)[O-])cc1 (stereo not shown),-16.3
7,CCCCc1c(C)c2cc(C)ccc2[nH]c1=O,9.98
8,COc1ccc(S(=O)(=O)Nc2ccc(N3CCOCC3)nc2)cc1,8.26
9,Cc1ccc2c3c([nH]c2c1)C(=O)CC(C)(C)S3,-0.882
10,CCNc1cc(Nc2c(C)n(C)n(-c3ccccc3)c2=O)c([N+](=O)[O-])c2nonc12,4.86
11,CCC(CC)C(=O)NCc1ccccc1OC,2.6
12,CCc1ccc(NC(=O)CC2C(=O)NCCN2C(=S)Nc2ccccc2)cc1 (stereo not shown),1.79
13,COc1ccc(OC)c(CN2CCC(Cc3ccccc3)CC2)c1.O=C(O)C(=O)O,-61.9
14,Cc1ccc(NC(=O)C(Cc2ccccc2)NC(=O)c2ccco2)cc1 (stereo not shown),-4.32
15,OC1CCCN(C(=S)NCc2ccccc2)C1 (stereo not shown),5.3
16,O=C(COc1c(Br)cc(Br)c2cccnc12)N1CCCCC1,-3.18
17,CCCOc1ccc(N2C(=O)CC(NCCNc3ccc(S(=O)(=O)CC)cc3)C2=O)cc1 (stereo not shown),-10.9
18,COc1ccc(CCNC(=O)COC(=O)c2ccc(Br)o2)cc1OC,6.76
19,CC(=O)c1cnc(N(C)C)s1,8.54
20,Cc1ccc(NC(=O)COC(=O)c2cccc(N3C(=O)c4ccccc4C3=O)c2)cc1,21.1

row,SMILES,"hERG current change (%, negative = inhibition) at 1uM [%]"
1,O=C(Nc1ccc2nc3n(c(=O)c2c1)CCCCC3)C(=O)N1CCN(c2ccc(F)cc2)CC1,15.8
2,CCOC(=O)Cn1c(CN2CCN(C(=O)c3ccco3)CC2)nc2c1c(=O)n(C)c(=O)n2C,12.8
3,O=C(COC(=O)CSCc1ccccc1)NCc1ccccc1,10.4
4,Cc1[nH][nH]c(=O)c1C=NCc1cccs1,9.49
5,Cc1ccc(S(=O)(=O)Cc2ccc([N+](=O)[O-])cc2)cc1,9.79
6,O=C(NC1CCCCCC1)C(=O)NC1CCCC1,8.6
7,CCCc1cc(=O)oc2c(C)c(OCC(=O)NCc3ccccn3)ccc12,9.5
8,CC(C)c1ccc(NC(=S)N2CCN(Cc3ccccc3)CC2)cc1,14.9
9,COc1ccc(/C=N/NC(=O)c2cccnc2)cc1COc1ccc([N+](=O)[O-])c(C)c1,10.3
10,COC(=O)Cn1c(C(O)c2ccccc2)nc2ccccc21 (stereo not shown),13.1
11,Cc1cc(NC(=O)CSc2nc3ccccc3n2CC(=O)N2CCC(C)CC2)no1,7.37
12,Cc1cccc(C)c1NC(=O)CSc1nnc(-c2ccncc2)n1Cc1ccco1,-22.5
13,O=C(CCC(=O)c1cccs1)Nc1ncccc1O,13.1
14,O=C(CCc1ccccc1)N/N=C/c1cccc([N+](=O)[O-])c1,4.35
15,COc1ccccc1CNC(=O)c1cc(-c2ccccc2C)n(CC2CC(c3cccc([N+](=O)[O-])c3)=NO2)n1 (stereo not shown),14.1
16,Nc1nnc(SCc2ccccc2F)s1,6.49
17,COc1c(-c2ccc(O)c(O)c2)oc2cc(O)cc(O)c2c1=O,7.9
18,C=CCOc1cccc(C2C(C(=O)c3cc4ccccc4o3)=C(O)C(=O)N2c2cc(C)on2)c1 (stereo not shown),19
